{"source": "PubChem BioAssay (NCATS)", "key": {"[1]": {"assay": "qHTS of pediatric cancer cell lines to identify multiple opportunities for drug repurposing: Primary screen for A673 cells (AID 1347092); further: nearly all actives have a fitted effect of over 45% in size", "conditions": "A673 Ewing sarcoma viability, CellTiter-Glo ATP luminescence, 48 h; activity change, negative = cytotoxic: at 46 µM (top of the series) unless noted", "in_short": "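Titration-based qHTS on A673 cells: MIPE compounds spanned 11 points (0.78 nM to 46 µM final), NPC compounds 8 points (0.59 nM to 46 µM final). Viability after 48 h was measured by ATP luminescence.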"}, "[2]": {"assay": "qHTS of pediatric cancer cell lines to identify multiple opportunities for drug repurposing: Primary screen for BT-37 cells (AID 1347094)", "in_short": "(§1)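 CRCs from 8- or 11-point titrations (lowest final 0.59 nM NPC, 0.78 nM MIPE). Cell viability: CellTiter-Glo after 48 h incubation, 15 min room-temperature development, luminescence imaging.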"}, "[3]": {"assay": "qHTS of pediatric cancer cell lines to identify multiple opportunities for drug repurposing: Primary screen for NB-EBc1 cells (AID 1347095)", "in_short": "as §1"}, "[4]": {"assay": "qHTS of pediatric cancer cell lines to identify multiple opportunities for drug repurposing: Primary screen for Saos-2 cells (AID 1347097)", "conditions": "Saos-2 viability, CellTiter-Glo ATP luminescence, 48 h; activity change, negative = cytotoxic: at 46 µM (top of the series)", "in_short": "as §1"}, "[5]": {"assay": "qHTS of pediatric cancer cell lines to identify multiple opportunities for drug repurposing: Primary screen for SK-N-SH cells (AID 1347098)", "in_short": "(§2)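 Cells (500-1,000/well) rested 5 h, then received compounds for 48 h; metabolically active cells were measured by CellTiter-Glo luminescence. Final concentrations spanned up to 46 µM (MIPE, 11-point) or 0.59 nM-46 µM (NPC, 8-point) in primary screens, 11-point in follow-ups.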"}, "[6]": {"assay": "qHTS of pediatric cancer cell lines to identify multiple opportunities for drug repurposing: Primary screen for NB1643 cells (AID 1347099)", "in_short": "as §1"}, "[7]": {"assay": "qHTS of pediatric cancer cell lines to identify multiple opportunities for drug repurposing: Primary screen for BT-12 cells (AID 1347101)", "in_short": "as §2"}, "[8]": {"assay": "qHTS of pediatric cancer cell lines to identify multiple opportunities for drug repurposing: Primary screen for LAN-5 cells (AID 1347100)", "conditions": "LAN-5 neuroblastoma viability, CellTiter-Glo luminescence, 48 h; activity change, negative = cytotoxic: at 46 µM (top of the series)", "in_short": "as §2"}}, "note": "“And” between values parts separate entries of the source, which are not always exact repeats. Equal entries are not always repeated. Inconclusive means that the source gave no clear call. Such entries were picked first, then a sample of the others. A potency beside an inconclusive call is a rough fit, not a confirmed value. The source made the active and inactive calls. The call rests on the fitted dose curve; in most records, active means well fitted curve in the direction sought with a large enough effect; inconclusive means small, poorly fitted or top-dose-only effect, or another doubt; inactive means no such curve, though single readings can be large; an effect the other way counts as inactive or inconclusive. Potency means the concentration at half of the fitted maximal effect; tags describe the fitted curve by direction and shape."}
{"smiles": "COc1cccc2c1CCCC2CCCN1CCN(C2CCCCC2)CC1", "note": "(centres undefined)", "values": [{"measurement": "Potency", "setting": "[1]", "result": "inactive"}, {"measurement": "Potency", "setting": "[2]", "result": "inconclusive: 21.7 µM [cytotoxic, partial curve]"}, {"measurement": "Potency", "setting": "[3]", "result": "inconclusive: 20.9 µM [cytotoxic, partial curve]"}, {"measurement": "Potency", "setting": "[4]", "result": "inconclusive: 16.6 µM [cytotoxic, partial curve]"}, {"measurement": "Potency", "setting": "[5]", "result": "inconclusive: 27.1 µM [cytotoxic, single point]"}, {"measurement": "Potency", "setting": "[6]", "result": "inconclusive: 20.9 µM [cytotoxic, partial curve]"}, {"measurement": "Potency", "setting": "[7]", "result": "active: 24.3 µM"}]}
{"smiles": "CCCCC(CC)COC(=O)C(C#N)=C(c1ccccc1)c1ccccc1", "note": "(centres undefined)", "values": [{"measurement": "Potency", "setting": "[1]", "result": "inconclusive: 37.2 µM [cytotoxic, single point]"}, {"measurement": "Potency", "setting": "[2]", "result": "inconclusive: 38.9 µM [cytotoxic, single point]"}, {"measurement": "Potency", "setting": "[3]", "result": "inconclusive: 23.7 µM [cytotoxic, single point]"}, {"measurement": "Potency", "setting": "[4]", "result": "inconclusive: 13.3 µM [cytotoxic, partial curve]"}, {"measurement": "Potency", "setting": "[8]", "result": "inconclusive: 23.7 µM [cytotoxic, single point] and inconclusive: 37.2 µM [cytotoxic, single point]"}, {"measurement": "Potency", "setting": "[7]", "result": "inconclusive: 15.5 µM [cytotoxic, partial curve] and inconclusive: 34.3 µM [cytotoxic, single point]"}]}
{"smiles": "c1ccc(CCNc2nc(-c3ccccc3)cs2)cc1", "values": [{"measurement": "Potency", "setting": "[1]", "result": "inconclusive: 33.5 µM [cytotoxic, single point]"}, {"measurement": "Potency", "setting": "[2]", "result": "inactive"}, {"measurement": "Potency", "setting": "[3]", "result": "inconclusive: 33.5 µM [cytotoxic, single point]"}, {"measurement": "Potency", "setting": "[4]", "result": "inconclusive: 29.9 µM [cytotoxic, partial curve, poor fit]"}, {"measurement": "Potency", "setting": "[5]", "result": "inconclusive: 0.344 µM [cytotoxic, partial curve]"}, {"measurement": "Potency", "setting": "[7]", "result": "inconclusive: 13.8 µM [cytotoxic, partial curve]"}]}
